Laboratory results published in PubChem BioAssay AID540317 (National Center for Advancing Translational Sciences (NCATS), 2011).
In all, about 390,000 compounds went through this assay and about 2,200 (0.56%) were called active. Inconclusive results, whose numbers are uncertain, are shown with a selection of clear calls. The call rests on the fitted dose curve; in most records, active means well fitted inhibition curve with a large enough effect; inconclusive means small, poorly fitted or top-dose-only effect; inactive means no such curve, though single readings can be large or run the other way. Where the call is inconclusive, the potency comes from a doubtful curve fit.

Target: Chromobox protein homolog 1 (Homo sapiens) (UniProt P83916)
Assay: HTS for Inhibitors of HP1-beta Chromodomain Interactions with Methylated Histone Tails; further: nearly all actives have a fitted effect of over 70% in size
Settings: AlphaScreen HP1-beta / biotin-H3K9me3 peptide binding; series mostly up to 114 µM; activity change, negative = inhibition: at the top concentration
How it was run: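 Compound inhibition of the preformed complex between 50 nM HP1-beta and 50 nM biotinylated H3K9me3 peptide was read by AlphaScreen. Buffer was PBS pH 7.4 with 0.01% Tween-20. Incubations ran 30 min at room temperature, with 10 ug/mL donor/acceptor beads.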
Potency means the concentration at half of the fitted maximal effect; tags describe the fitted curve by direction and shape.

Chain of UniProt P83916 (P83916 whole entry, looked up): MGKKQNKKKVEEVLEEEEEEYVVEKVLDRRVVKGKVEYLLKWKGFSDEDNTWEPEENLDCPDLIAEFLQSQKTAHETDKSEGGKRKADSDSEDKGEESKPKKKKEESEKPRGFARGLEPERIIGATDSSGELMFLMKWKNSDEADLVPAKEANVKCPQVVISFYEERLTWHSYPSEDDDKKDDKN

SMILES | Potency | activity change, negative = inhibition
c1ccc(-c2ccc3c(c2)NCCN3)cc1 | inconclusive: 44.7 µM [inhibitor, partial curve] | –
CC1CCN(C(=S)c2ccc([N+](=O)[O-])cc2)CC1 | inconclusive: 39.8 µM [inhibitor, partial curve] | –
O=S(=O)(c1ccccc1)N1CCN(CC2CC3C=CC2C3)CC1 (stereo unspecified) | inconclusive: 17.8 µM [inhibitor, full curve] | –
O=C(C1CCN(CCCc2ccccc2)CC1)N(CCc1ccccc1)Cc1ccccc1 | inconclusive: 15.8 µM [inhibitor, full curve, poor fit] | –
COC(=O)COc1ccc(-c2nccc(-c3ccccn3)n2)cc1 | – | inactive: 18.6%
COc1ccc(NC(=O)CN(C)C(=O)C2CC(=O)N(CCc3ccc(OC)c(OC)c3)C2)cc1 (stereo unspecified) | – | inactive: 34.2%
O=c1c(CN2CCN(c3ccccn3)CC2)coc2ccccc12 | inconclusive: 50.1 µM [inhibitor, partial curve] | –
CCOc1ccc(Br)cc1C1C(C(=O)OC)=C(N)Oc2cc(N(C)C)ccc21 (stereo unspecified) | inconclusive: 28.2 µM [inhibitor, partial curve, poor fit] | –
CCNC(=O)/C(C#N)=C/c1c(N2CCN(c3ccc(OC)cc3)CC2)nc2c(C)cccn2c1=O | inconclusive: 10 µM [inhibitor, full curve, poor fit] | –
CC1(CCc2ccccc2)NC(=O)N(CC(=O)Nc2ccc(S(N)(=O)=O)cc2)C1=O (stereo unspecified) | inconclusive: 89.1 µM [inhibitor, partial curve, poor fit] | –
CCCCn1c(C(C)NC(=O)c2ccccc2)nc2ccccc21 (stereo unspecified) | – | inactive: 22.1%
COc1ccc(C2CC(=O)N(CCCN(C)CCc3ccc(OC)c(OC)c3)C2)cc1 (stereo unspecified) | inconclusive: 35.5 µM [inhibitor, partial curve] | –
CC1(C)Cc2ccccc2C(NNC(=O)c2ccccn2)=N1 | – | inactive: 26.5%
CCOC(=O)C1=C(N)N(c2ccccc2)C(=O)C1 | inconclusive: 7.94 µM [inhibitor, full curve] | –
CCOc1ccc(N(C)C(CNS(=O)(=O)c2ccccc2)c2ccccc2)cc1 (stereo unspecified) | inconclusive: 12.6 µM [inhibitor, partial curve, poor fit] | –
O=C(Oc1ccc(Br)cc1)C1CCN(C2=NS(=O)(=O)c3ccccc32)CC1 | – | inactive: 10.4%
CC(=O)c1cc(-c2ccccc2)n(CC(=O)Nc2cc(C)cc(C)c2)c1C | – | inactive: 31.7%
Cc1cc(C)c(C)c(OCCCN(C)C)c1 | inconclusive: 3.16 µM [inhibitor, partial curve, poor fit] | –
C=CCc1ccc(OCCCCNC2CCCC2)c(OC)c1 | inconclusive: 79.4 µM [inhibitor, single point] | –
COc1ccc(Cl)cc1NC(=O)CNCC(c1ccccc1)N(C)C (stereo unspecified) | inconclusive: 15.8 µM [inhibitor, partial curve, poor fit] | –
COc1ccc(C2=C(Nc3ccc(C)c(C)c3)c3ccccc3C2=O)cc1 | inconclusive: 3.55 µM [inhibitor, full curve, poor fit] | –
O=C(CN(Cc1cccs1)C(=O)c1csnn1)NC1CCCC1 | inconclusive: 39.8 µM [inhibitor, single point] | –

SMILES | Potency | activity change, negative = inhibition
COc1cc(C(=O)N2CCN(Cc3ccc4c(c3)OCO4)CC2)cc(OC)c1OC | inconclusive: 56.2 µM [inhibitor, partial curve, poor fit] | –
CCc1c(C)sc(NC(=O)Cn2nc(C)c([N+](=O)[O-])c2C)c1C(N)=O | inconclusive: 11.2 µM [inhibitor, full curve] | –
Nc1c(N(Cc2ccco2)C(=O)c2ccc(Cl)cc2)c(=O)[nH]c(=O)n1Cc1ccccc1 | – | inactive: 34.6%
O=C(O)CSc1cc(NS(=O)(=O)c2ccc(Cl)cc2)c2ccccc2c1O | active: 20 µM | –
COc1ccc(-c2csc(NCc3ccco3)n2)cc1 | inconclusive: 56.2 µM [inhibitor, partial curve, poor fit] | –
Cc1ccc(N/N=C/c2ccc(N3CCOCC3)cc2)cc1C | active: 79.4 µM | –
Cc1ccc(Nc2c(-c3ccccn3)nc3cccc(C)n23)cc1 | inconclusive: 28.2 µM [inhibitor, full curve] | –
CC(C)c1ccc(OCC(=O)N(Cc2ccc(N(C)C)cc2)C2CCS(=O)(=O)C2)cc1 (stereo unspecified) | inconclusive: 50.1 µM [inhibitor, partial curve] | –
CCCOc1ccc(OCCOCCNCc2ccccc2)cc1 | inconclusive: 11.2 µM [inhibitor, partial curve, poor fit] | –
Cc1ccc(-c2noc(CN(C)C(=O)c3ccc(Br)o3)n2)cc1 | inconclusive: 39.8 µM [inhibitor, partial curve] | –
Cc1ccc2nc(-c3cccnc3)c(Nc3ccccc3C)n2c1 | inactive | –
CC(C(Sc1ccccc1N)c1ccccc1)[N+](=O)[O-] (stereo unspecified) | inconclusive: 56.2 µM [inhibitor, partial curve, poor fit] | –
COc1cc(C(=S)N2CCOCC2)ccc1OC(=O)c1cc([N+](=O)[O-])cc([N+](=O)[O-])c1 | inconclusive: 3.55 µM [inhibitor, partial curve, poor fit] | –
O=C(Nc1ccc(O)cc1)c1cccc(Oc2ccc([N+](=O)[O-])cc2)c1 | inconclusive: 70.8 µM [inhibitor, partial curve, poor fit] | –
Cc1cc(C)n2nc(SCC(=O)N3CCC(C(=O)O)CC3)nc2n1 | – | inactive: 37.2%
Nc1nc2c(s1)COc1ccccc1-2 | inconclusive: 17.8 µM [inhibitor, full curve] | –
O=C(OCC(=O)c1ccccc1Cl)c1cnccn1 | inconclusive: 39.8 µM [inhibitor, single point] | –
COc1ccc(/C=C(/NC(=O)c2ccco2)C(=O)N2CCCC2=O)cc1 | – | inactive: 33.5%
CCN(c1ccc(NC(=O)COC(=O)C(C)N=C2NS(=O)(=O)c3ccccc32)cc1)C(C)C (stereo unspecified) | inconclusive: 50.1 µM [inhibitor, partial curve] | –
Cc1ccc(-n2c(Cc3cccn3C)nnc2SCC(=O)N2CCc3ccccc32)cc1 | inconclusive: 39.8 µM [inhibitor, partial curve, poor fit] | –
CCOC(=S)N/C(=N\S(=O)(=O)c1ccc(C)cc1)c1ccccc1 | inconclusive: 12.6 µM [inhibitor, partial curve, poor fit] | –
Cc1c(S(=O)(=O)Nc2cc(Cl)ccc2Cl)c(=O)n(C)c(=O)n1C | – | inactive: 32.7%

SMILES | Potency | activity change, negative = inhibition
CCc1cccc(C)c1NC(=S)NCC1CCN(c2ccc(OC)cc2)C1 (stereo unspecified) | active: 22.4 µM | –
COc1cc(CN2CCN(C(=O)c3cccc4ccccc34)CC2)cc(OC)c1O | inconclusive: 28.2 µM [inhibitor, single point] | –
Cc1cc2ccccn2c1C(C[N+](=O)[O-])c1ccc(N(C)C)cc1 (stereo unspecified) | inconclusive: 28.2 µM [inhibitor, partial curve] | –
CN1C(=O)C(=O)/C(=C(/O)c2ccccc2)C1c1ccc([N+](=O)[O-])cc1 (stereo unspecified) | – | inactive: 46.3%
CC1=NN(c2ccccc2)C(=O)/C1=C\c1cn(CCC#N)nc1-c1ccc(Cl)cc1 | inconclusive: 14.1 µM [inhibitor, full curve] | –
COc1ccc(N2CCN(C(=O)c3cccc(NC(=O)c4nsc5ccccc45)c3)CC2)cc1 | inconclusive: 22.4 µM [inhibitor, partial curve, poor fit] | –
COC(=O)c1cc(NC(=O)c2nn(C)c3c2COc2ccccc2-3)cc(C(=O)OC)c1 | inconclusive: 50.1 µM [inhibitor, partial curve] | –
O=c1c2cc(F)ccc2[nH]c(=S)n1CCCN1CCOCC1 | – | inactive: 26.3%
CCOCCCNC(=O)C1CCN(S(=O)(=O)N2CCCC2)CC1 | – | inactive: 66.6%
O=C(CSc1cn(CC(=O)N2CCCCC2)c2ccccc12)Nc1ccc(C(F)(F)F)cc1 | – | inactive: 47.5%
COc1cccc(Cn2nnc(C(=O)Nc3cc(C)ccc3OC)c2N)c1 | – | inactive: 5.19%
COCCn1c(-c2ccccc2)cnc1SCC(=O)Nc1cccc2ccccc12 | inconclusive: 31.6 µM [inhibitor, partial curve, poor fit] | –
Cc1ccccc1NC(=O)c1cc(-c2ccco2)nc2ccccc12 | inconclusive: 44.7 µM [inhibitor, partial curve] | –
O=[N+]([O-])/C(C(Cl)=C(Cl)Cl)=C1\Nc2ccccc2O1 | inconclusive: 79.4 µM [inhibitor, partial curve] | –
COc1ccc(-c2ccc(N(C)C)cc2)cc1[C@H]1[C@H]2C=CC[C@@H](C)[C@@H]2C(=O)N1Cc1ccccc1 | inconclusive: 6.31 µM [inhibitor, full curve] | –
Cn1c(=O)n(C)c2cc(N3CCCCC3)c(NC(=O)c3ccc(C(C)(C)C)cc3)cc21 | – | inactive: 10.4%
Fc1ccccc1/C=C1\CCCC2=C1NC(=S)NC2c1ccccc1F (stereo unspecified) | inconclusive: 44.7 µM [inhibitor, partial curve] | –
CC1CC(C)CN(CCCCOc2ccc([N+](=O)[O-])cc2)C1 (stereo unspecified) | inconclusive: 3.55 µM [inhibitor, partial curve, poor fit] | –
COc1ccc(Cl)cc1C(=O)C1CCCN(Cc2cnc(N3CCOCC3)s2)C1 (stereo unspecified) | inconclusive: 7.94 µM [inhibitor, partial curve, poor fit] | –
C=CCSc1nc2sc3c(c2c(=O)n1CC)CCc1ccccc1-3 | inconclusive: 12.6 µM [inhibitor, partial curve, poor fit] | –
COc1ccccc1NC(=O)Cn1c(=O)n(CCCCCC(=O)NCc2ccccc2)c(=O)c2sccc21 | – | inactive: 20.6%
CCN(CC)c1ccc(NC(=O)CSc2nnc3nc(C)cc(C)n23)cc1 | inconclusive: 44.7 µM [inhibitor, partial curve, poor fit] | –
